Like-named read-outs stand apart in the source and are kept apart here. Results are given in words; binding and its absence hold for the method and conditions named. In cells and extracts the contact can be indirect. Some results given as binding are weak or reduced against the parent protein; the word gives no strength. For part of these data: Sequences can lack the tags named with a protein.

The chains behind the UniProt entries cited, without tags or fusion partners. Where a name states a change or a piece, a line headed by the entry shows the natural chain unless it says otherwise.
UniProt Q9NXV2: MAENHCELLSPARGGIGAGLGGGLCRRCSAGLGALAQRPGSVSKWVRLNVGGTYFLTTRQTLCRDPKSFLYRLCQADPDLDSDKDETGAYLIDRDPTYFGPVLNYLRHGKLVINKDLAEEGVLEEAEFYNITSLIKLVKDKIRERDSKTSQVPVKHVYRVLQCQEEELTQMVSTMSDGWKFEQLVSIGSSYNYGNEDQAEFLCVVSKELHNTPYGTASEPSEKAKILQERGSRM
UniProt Q96CX2: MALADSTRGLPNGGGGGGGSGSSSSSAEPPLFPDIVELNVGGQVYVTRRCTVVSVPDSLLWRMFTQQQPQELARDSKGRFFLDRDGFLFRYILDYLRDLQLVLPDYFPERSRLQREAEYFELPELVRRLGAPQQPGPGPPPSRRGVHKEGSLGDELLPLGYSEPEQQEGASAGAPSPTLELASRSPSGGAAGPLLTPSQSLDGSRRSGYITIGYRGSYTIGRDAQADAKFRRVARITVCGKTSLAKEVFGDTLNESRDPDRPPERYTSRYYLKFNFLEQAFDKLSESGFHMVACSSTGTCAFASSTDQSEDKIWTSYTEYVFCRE
UniProt Q68DU8: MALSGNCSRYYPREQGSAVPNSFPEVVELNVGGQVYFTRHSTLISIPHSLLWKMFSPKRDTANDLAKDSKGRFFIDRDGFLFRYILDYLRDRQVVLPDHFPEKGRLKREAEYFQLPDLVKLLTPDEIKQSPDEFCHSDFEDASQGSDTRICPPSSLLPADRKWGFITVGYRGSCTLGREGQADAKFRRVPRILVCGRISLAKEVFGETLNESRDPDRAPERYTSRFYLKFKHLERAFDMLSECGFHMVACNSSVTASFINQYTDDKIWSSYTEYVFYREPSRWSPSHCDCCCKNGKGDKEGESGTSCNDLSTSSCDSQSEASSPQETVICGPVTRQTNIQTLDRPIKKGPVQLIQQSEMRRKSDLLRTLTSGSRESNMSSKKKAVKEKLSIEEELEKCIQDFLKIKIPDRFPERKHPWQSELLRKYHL
UniProt Q8N5Z5: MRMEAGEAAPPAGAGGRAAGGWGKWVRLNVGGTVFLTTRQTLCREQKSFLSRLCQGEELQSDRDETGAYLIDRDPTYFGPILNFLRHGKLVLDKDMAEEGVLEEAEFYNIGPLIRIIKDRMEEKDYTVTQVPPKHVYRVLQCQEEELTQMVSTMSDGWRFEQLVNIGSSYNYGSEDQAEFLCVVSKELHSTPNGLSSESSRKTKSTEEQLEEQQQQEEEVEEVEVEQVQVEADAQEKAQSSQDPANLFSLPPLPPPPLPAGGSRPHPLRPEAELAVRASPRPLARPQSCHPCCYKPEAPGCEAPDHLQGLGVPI
UniProt Q14681: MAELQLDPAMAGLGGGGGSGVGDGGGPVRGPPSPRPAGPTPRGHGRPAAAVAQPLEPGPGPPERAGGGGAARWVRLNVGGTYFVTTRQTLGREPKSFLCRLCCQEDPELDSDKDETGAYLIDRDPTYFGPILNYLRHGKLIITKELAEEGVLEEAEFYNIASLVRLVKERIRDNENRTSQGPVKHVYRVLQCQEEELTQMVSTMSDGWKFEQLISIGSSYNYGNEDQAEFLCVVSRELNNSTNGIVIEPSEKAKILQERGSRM
UniProt Q6ZWB6: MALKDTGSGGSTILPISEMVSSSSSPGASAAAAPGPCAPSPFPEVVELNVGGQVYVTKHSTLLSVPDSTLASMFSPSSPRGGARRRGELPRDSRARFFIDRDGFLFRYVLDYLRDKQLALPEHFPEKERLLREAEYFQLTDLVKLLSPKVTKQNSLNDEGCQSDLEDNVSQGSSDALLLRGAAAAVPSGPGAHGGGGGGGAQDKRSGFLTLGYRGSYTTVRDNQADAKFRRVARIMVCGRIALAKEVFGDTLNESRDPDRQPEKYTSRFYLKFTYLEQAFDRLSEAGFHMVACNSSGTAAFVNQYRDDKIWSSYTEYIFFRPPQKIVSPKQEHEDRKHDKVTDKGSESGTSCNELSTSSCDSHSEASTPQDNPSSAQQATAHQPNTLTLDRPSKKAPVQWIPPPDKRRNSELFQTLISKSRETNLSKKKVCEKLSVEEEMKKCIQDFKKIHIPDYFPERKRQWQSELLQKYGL

For assay [1], the target named is KCTD5-Venus (human) (UniProt Q9NXV2). The assay is described as follows: co-IP; HEK293 cells co-transfected 1:1; lysate (1% Triton-X, 150 mM NaCl); IP of Venus-tagged KCTD5 or its fragments with anti-GFP antibody and Dynabeads Protein G, 2 h, +4 °C; Western blot with anti-myc antibody. A general note: Immunoblotting shows a protein as a band on a membrane.
The target in assay [2] is Venus-BTB (KCTD5 BTB domain AA 40–151, Venus fused to the N-terminus) (human) (UniProt Q9NXV2). The assay is described as above.
Assay [3] addresses Venus-FL (full-length KCTD5 with Venus fused to the N-terminus) (human) (UniProt Q9NXV2). The assay is described as above.
Assay [4] concerns the target Venus-ΔN (KCTD5 with AA 1–39 deleted, Venus fused to the N-terminus) (human) (UniProt Q9NXV2). The description is as above.
A further assay addresses KCTD12-myc-flag (human) (UniProt Q96CX2). Kind of assay: co-IP; IP-luminescence: HEK293 cells co-transfected 1:1 with Nluc-KCTD5 constructs and KCTD-myc-flag; lysate; IP with anti-DYKDDDDK magnetic agarose, 2 h, +4 °C; luminescence of the IP divided by that of the total lysate.
For a further assay, the target named is KCTD16-myc-flag (human) (UniProt Q68DU8). Described as above.
The target in a further assay is KCTD17-myc-flag (human) (UniProt Q8N5Z5). The description is as above.
The target of the next assay is KCTD2-myc-flag (human) (UniProt Q14681). The assay is described as above.
The target of a further assay is KCTD5-myc-flag (human) (UniProt Q9NXV2). The description is as above.
In a further assay the target is KCTD8-myc-flag (human) (UniProt Q6ZWB6). The assay is described as above.
Another assay concerns the target T1, KCTD9-myc-flag (human) (UniProt Q7L273).
T1 sequence: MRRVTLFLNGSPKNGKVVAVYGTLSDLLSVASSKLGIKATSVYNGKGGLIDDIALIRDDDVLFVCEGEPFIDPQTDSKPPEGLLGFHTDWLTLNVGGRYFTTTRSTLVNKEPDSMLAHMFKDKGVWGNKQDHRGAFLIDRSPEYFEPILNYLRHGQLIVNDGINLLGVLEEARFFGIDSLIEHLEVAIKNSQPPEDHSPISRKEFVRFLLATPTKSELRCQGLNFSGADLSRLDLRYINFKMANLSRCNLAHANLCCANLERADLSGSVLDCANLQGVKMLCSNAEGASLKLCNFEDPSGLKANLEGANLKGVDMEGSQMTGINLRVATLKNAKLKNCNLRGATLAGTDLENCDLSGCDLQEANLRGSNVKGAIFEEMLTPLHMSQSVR
The assay is described as above.

For assay [5], the target named is KCTD5-Venus (human) (UniProt Q9NXV2). The assay is described as follows: co-IP; HEK293 cells co-transfected 1:1; lysate (1% Triton-X, 150 mM NaCl); IP of Venus-tagged KCTD5 or its fragments with anti-GFP antibody and Dynabeads Protein G, 2 h, +4 °C; Western blot with anti-myc antibody. This is another data set of the same source.

On to “KCTD5-myc-flag (from UniProt Q9NXV2 1-234)”, for which the binding entry (with KCTD5-Venus (human) [1]; in assay [2]; in assay [3]; in assay [4]) was “binds” each time.

As for “Nluc-BTB (KCTD5 BTB domain AA 40–151, N-terminal Nanoluciferase) (from UniProt Q9NXV2 40-151) (domain or fragment)”, the binding result is on record as “no binding” in the assay with KCTD12-myc-flag (human); “binds” with KCTD16-myc-flag (human); “binds” in the assay with KCTD17-myc-flag (human); “binds” with KCTD2-myc-flag (human); “binds” with KCTD5-myc-flag (human); “no binding” with KCTD8-myc-flag (human).

With “Nluc-CT (KCTD5 C-terminal AA 149–234, N-terminal Nanoluciferase) (from UniProt Q9NXV2 149-234) (domain or fragment)”, the binding entry is given as “binds” with KCTD12-myc-flag (human); “binds” with KCTD16-myc-flag (human); “no binding” with KCTD17-myc-flag (human); “no binding” in the assay with KCTD2-myc-flag (human); “binds” in the assay with KCTD8-myc-flag (human).

With “Nluc-FL (full-length KCTD5 with N-terminal Nanoluciferase) (from UniProt Q9NXV2 1-234)”, the binding result with KCTD12-myc-flag (human) is listed as “no binding”; with KCTD16-myc-flag (human), “binds”; in the assay with KCTD17-myc-flag (human), “binds”; with KCTD2-myc-flag (human), “binds”; with KCTD5-myc-flag (human), “binds”; in the assay with KCTD8-myc-flag (human) it was “binds”. Moreover, the binding entry with KCTD9-myc-flag (human) is “no binding”.

“Nluc-ΔN (KCTD5 with AA 1–39 deleted, N-terminal Nanoluciferase) (from UniProt Q9NXV2 40-234) (domain or fragment)”: the binding entry is “no binding” with KCTD12-myc-flag (human); “binds” in the assay with KCTD17-myc-flag (human); “binds” with KCTD2-myc-flag (human); “binds” with KCTD5-myc-flag (human); “binds” with KCTD8-myc-flag (human).

B1: KCTD7-myc-flag (protein, UniProt Q96MP8 1-289)
chain: MVVVTGREPDSRRQDGAMSSSDAEDDFLEPATPTATQAGHALPLLPQEFPEVVPLNIGGAHFTTRLSTLRCYEDTMLAAMFSGRHYIPTDSEGRYFIDRDGTHFGDVLNFLRSGDLPPRERVRAVYKEAQYYAIGPLLEQLENMQPLKGEKVRQAFLGLMPYYKDHLERIVEIARLRAVQRKARFAKLKVCVFKEEMPITPYECPLLNSLRFERSESDGQLFEHHCEVDVSFGPWEAVADVYDLLHCLVTDLSAQGLTVDHQCIGVCDKHLVNHYYCKRPIYEFKITWW
On to B1, for which the binding entry with KCTD5-Venus (human) [5] is given as “no binding”.

B2: KCTD19-myc-flag (protein, UniProt Q17RG1 1-926)
chain: MEESGMAHESAEDLFHFNVGGWHFSVPRSKLSQFPDSLLWKEASALTSSESQRLFIDRDGSTFRHVHYYLYTSKLSFSSCAELNLLYEQALGLQLMPLLQTLDNLKEGKHHLRVRPADLPVAERASLNYWRTWKCISKPSEFPIKSPAFTGLHDKAPLGLMDTPLLDTEEEVHYCFLPLDLVAKYPSLVTEDNLLWLAETVALIECECSEFRFIVNFLRSQKILLPDNFSNIDVLEAEVEILEIPALTEAVRWYRMNMGGCSPTTCSPLSPGKGARTASLESVKPLYTMALGLLVKYPDSALGQLRIESTLDGSRLYITGNGVLFQHVKNWLGTCRLPLTETISEVYELCAFLDKRDITYEPIKVALKTHLEPRTLAPMDVLNEWTAEITVYSPQQIIKVYVGSHWYATTLQTLLKYPELLSNPQRVYWITYGQTLLIHGDGQMFRHILNFLRLGKLFLPSEFKEWPLFCQEVEEYHIPSLSEALAQCEAYKSWTQEKESENEEAFSIRRLHVVTEGPGSLVEFSRDTKETTAYMPVDFEDCSDRTPWNKAKGNLVRSNQMDEAEQYTRPIQVSLCRNAKRAGNPSTYSHCRGLCTNPGHWGSHPESPPKKKCTTINLTQKSETKDPPATPMQKLISLVREWDMVNCKQWEFQPLTATRSSPLEEATLQLPLGSEAASQPSTSAAWKAHSTASEKDPGPQAGAGAGAKDKGPEPTFKPYLPPKRAGTLKDWSKQRTKERESPAPEQPLPEASEVDSLGVILKVTHPPVVGSDGFCMFFEDSIIYTTEMDNLRHTTPTASPQPQEVTFLSFSLSWEEMFYAQKCHCFLADIIMDSIRQKDPKAITAKVVSLANRLWTLHISPKQFVVDLLAITGFKDDRHTQERLYSWVELTLPFARKYGRCMDLLIQRGLSRSVSYSILGKYLQED
As for B2, the binding entry with KCTD5-Venus (human) [5] was “no binding”.

B3: KCTD9-myc-flag (protein, UniProt Q7L273 1-389)
chain: MRRVTLFLNGSPKNGKVVAVYGTLSDLLSVASSKLGIKATSVYNGKGGLIDDIALIRDDDVLFVCEGEPFIDPQTDSKPPEGLLGFHTDWLTLNVGGRYFTTTRSTLVNKEPDSMLAHMFKDKGVWGNKQDHRGAFLIDRSPEYFEPILNYLRHGQLIVNDGINLLGVLEEARFFGIDSLIEHLEVAIKNSQPPEDHSPISRKEFVRFLLATPTKSELRCQGLNFSGADLSRLDLRYINFKMANLSRCNLAHANLCCANLERADLSGSVLDCANLQGVKMLCSNAEGASLKLCNFEDPSGLKANLEGANLKGVDMEGSQMTGINLRVATLKNAKLKNCNLRGATLAGTDLENCDLSGCDLQEANLRGSNVKGAIFEEMLTPLHMSQSVR
In the case of B3, in the assay with KCTD5-Venus (human) [5], the binding result is given as “no binding”.

B4: KCTD13-myc-flag (protein, UniProt Q8WZ19 1-329)
chain: MSAEASGPAAAAAPSLEAPKPSGLEPGPAAYGLKPLTPNSKYVKLNVGGSLHYTTLRTLTGQDTMLKAMFSGRVEVLTDAGGWVLIDRSGRHFGTILNYLRDGSVPLPESTRELGELLGEARYYLVQGLIEDCQLALQQKRETLSPLCLIPMVTSPREEQQLLASTSKPVVKLLHNRSNNKYSYTSTSDDNLLKNIELFDKLALRFHGRLLFLKDVLGDEICCWSFYGQGRKIAEVCCTSIVYATEKKQTKVEFPEARIFEETLNILIYETPRGPDPALLEATGGAAGAGGAGRGEDEENREHRVRRIHVRRHITHDERPHGQQIVFKD
Regarding B4, the binding result in the assay with KCTD5-Venus (human) [5] was “binds”.

B5: TNFAIP1-myc-flag (protein, UniProt Q13829 1-316)
chain: MSGDTCLCPASGAKPKLSGFKGGGLGNKYVQLNVGGSLYYTTVRALTRHDTMLKAMFSGRMEVLTDKEGWILIDRCGKHFGTILNYLRDDTITLPQNRQEIKELMAEAKYYLIQGLVNMCQSALQDKKDSYQPVCNIPIITSLKEEERLIESSTKPVVKLLYNRSNNKYSYTSNSDDHLLKNIELFDKLSLRFNGRVLFIKDVIGDEICCWSFYGQGRKLAEVCCTSIVYATEKKQTKVEFPEARIYEETLNVLLYETPRVPDNSLLEATSRSRSQASPSEDEETFELRDRVRRIHVKRYSTYDDRQLGHQSTHRD
In the case of B5, in the assay with KCTD5-Venus (human) [5], the binding entry is “no binding”.

B6: KCTD11-myc-flag (protein, UniProt Q693B1 1-232)
chain: MLGAMFRAGTPMPPNLNSQGGGHYFIDRDGKAFRHILNFLRLGRLDLPRGYGETALLRAEADFYQIRPLLDALRELEASQGTPAPTAALLHADVDVSPRLVHFSARRGPHHYELSSVQVDTFRANLFCTDSECLGALRARFGVASGDRAEGSPHFHLEWAPRPVELPEVEYGRLGLQPLWTGGPGERREVVGTPSFLEEVLRVALEHGFRLDSVFPDPEDLLNSRSLRFVRH
As for B6, in the assay with KCTD5-Venus (human) [5], the binding result is “no binding”.

For the origin of these results see PMC10531988.
